Measurements reported in ChEMBL document CHEMBL1201862, “PubChem BioAssay data set” (2004).

These molecules were tested on NCI-H322M (assay: NCI tumour cell line growth inhibition, 48 h).
With `NCc1ccccc1.O=C(O)NCc1ccccc1` the GI50 was inactive: 33.3 µM.
With `Clc1ccc2c(c1)N(CCCN1CCCC13CCCCC3)c1ccccc1S2` the GI50 was inactive: 18.8 µM.
For `N=C(N)NCCNC(=N)N`, the GI50 was inactive: > 100 µM.
For `CCOC(=O)C(NCc1ccccc1)(NC(=O)c1ccccc1)C(F)(F)F` (stereo not drawn), the GI50 was inactive: > 100 µM.
`COc1cc([C@@H]2c3cc4c(cc3[C@@H](NCCNCCO)[C@H]3COC(=O)[C@H]23)OCO4)cc(OC)c1O` was tested, and the GI50 was inactive: 9.51 µM.
With `CCCCCCCCOC(=O)c1cc([N+](=O)[O-])c(Sc2[nH]cnc3ncnc2-3)c([N+](=O)[O-])c1` the GI50 was inactive: 4.93 µM.
With `OCCCSCCO` the GI50 was inactive: > 100 µM.
In the case of `CCN(CC)CC[n+]1ccc2c(C)c3[nH]c4ccccc4c3c(C)c2c1`, the GI50 is reported as active: 1.11 µM.
In the case of `O=C(/C=C/c1csc(-c2ccccc2)n1)NCc1ccc(C(=O)NCCc2ccccc2)cc1`, the GI50 is reported as inactive: > 100 µM.
For `COC1=CC(=O)C2=C(C1=O)[C@H]1CC[C@]3(C)C(=O)CC[C@H]3[C@@H]1CC2`, the GI50 was inactive: > 100 µM.
For `CC(=O)O[C@H]1CC[C@@]2(C)C(=CC[C@@H]3C2CC[C@]2(C)Nc4oncc4CC32)C1` (stereo partly drawn), the GI50 was inactive: > 100 µM.
With `COc1cc2c(cc1OC)C(SC)C(=O)N(Cc1cccc(OC)c1OC)CC2` (stereo not drawn) the GI50 was inactive: 12.7 µM.
With `CC1=C(C(=O)NC2CCCCC2)CC(C(=O)NC2CCCCC2)=C(C)N1` the GI50 was inactive: > 100 µM.
With `C/C(CC(=O)N(C(C)C)C(C)C)=N\NC(=O)c1ccncc1` the GI50 was inactive: > 100 µM.
For `COC(=O)c1cc(C#N)[nH]c1-c1cc(Br)cs1`, the GI50 was inactive: 19.3 µM.
With `COC(=O)c1ccc(CCC2=CC(=O)C(Br)=CC2=O)cc1` the GI50 was inactive: 26.5 µM.
With `CN(C)c1ccc(C(=C(c2ccc(N(C)C)cc2)c2ccc(N(C)C)cc2)c2ccc(N(C)C)cc2)cc1` the GI50 was inactive: 31.6 µM.
In the case of `NC(=S)SC1=NC(=O)C2(NN1)c1ccccc1-c1ccccc12`, the GI50 is reported as inactive: > 10 µM.
For `O=C1CC[C@@]23CC(=O)O[C@@H]2CCCC3C1` (stereo partly drawn), the GI50 was inactive: > 100 µM.
With `C(=C\c1cc(-c2ccc3ccccc3n2)nc2ccc3ccccc3c12)/c1ccc2ccccc2n1` the GI50 was inactive: > 100 µM.
`CNC(=O)N(C)/N=N/CCCl` was tested, and the GI50 was inactive: > 100 µM.
With `O=c1c2nc3ccccc3c(=O)n2ncn1-c1ccccc1Cl` the GI50 was inactive: > 100 µM.
In the case of `CCN(CC)C(=O)Cc1c(C(=O)N(CC)CC)c(=O)nc2sccn12`, the GI50 is reported as inactive: > 100 µM.
In the case of `Cn1cc2ccccc2c1-c1nc(F)nc(Oc2ccc3c(c2)CC[C@@H]2C3CC[C@@]3(C)C2C[C@H](O)[C@@H]3O)n1` (stereo partly drawn), the GI50 is reported as inactive: 20.3 µM.
For `O=c1sc2c(s1)-c1sc(=O)sc1SS2`, the GI50 was inactive: > 100 µM.
In the case of `COc1cccc2c1-c1nc(N)c3c(OC)cccc3c1C2=O`, the GI50 is reported as inactive: 44 µM.
In the case of `O=C(N/N=C\c1ccc([N+](=O)[O-])cc1)Nc1ccccc1`, the GI50 is reported as inactive: > 100 µM.
For `COc1cc2oc(=O)cc(C)c2c(OC)c1OC(C)=O`, the GI50 was inactive: > 100 µM.
In the case of `COc1ccc(/N=[N+](\[O-])c2ccc(OC)cc2)cc1`, the GI50 is reported as inactive: > 100 µM.
With `O=C(O)C1=C(C(=O)Nc2ccc(NC(=O)C3=C(C(=O)O)C4C=CC3C4)cc2)C2C=CC1C2` the GI50 was inactive: > 100 µM.
With `CC(C)C(=O)CC(Sc1ccc(N)cc1)c1ccccc1` (stereo not drawn) the GI50 was inactive: 28.4 µM.
With `CCOC(=O)C1(C/C=C/CBr)Cc2ccccc2C1=O` (stereo not drawn) the GI50 was inactive: 14.3 µM.
For `O=C1c2ccc3c4ccccc4n(Cc4ccccc4)c3c2C(=O)N1c1ccccc1`, the GI50 was inactive: 25.8 µM.
`N#C/C(=C\c1c(O)cc(O)cc1O)C(N)=O` was tested, and the GI50 was inactive: > 100 µM.
`Cc1nn(C2OC(CO)C(O)C(F)C2O)c(=O)[nH]c1=O` (stereo not drawn) was tested, and the GI50 was inactive: > 100 µM.
`CCOC(=O)NC(=S)c1ccc(O)c2ccccc12` was tested, and the GI50 was inactive: 45.9 µM.
In the case of `NC(=S)N/N=C1\CCCCC1C(O)(C(F)(F)Cl)C(F)(F)Cl` (stereo not drawn), the GI50 is reported as inactive: > 10 µM.
In the case of `COc1cccc(C2ON=C(c3ccccc3)N2C23CC4CC(CC(C4)C2)C3)c1` (stereo not drawn), the GI50 is reported as inactive: > 10 µM.
With `Cc1ccc(/N=N/C(C2=NC(=O)CS2)c2nc3ccccc3[nH]2)cc1` (stereo not drawn) the GI50 was inactive: > 100 µM.
`CO[C@H]1O[C@@H]2CO[C@@H](c3ccccc3)O[C@H]2[C@@H]2CC=CCC[C@]12O` was tested, and the GI50 was inactive: > 100 µM.
`O=C(O)c1ccc(C2C3C=CC(C3)C2[N+](=O)[O-])cc1` (stereo not drawn) was tested, and the GI50 was inactive: > 100 µM.
With `OC1(c2ccccc2)CCCCCCCCC(O)(c2ccccc2)CCCCCCCC1` (stereo not drawn) the GI50 was inactive: > 100 µM.
With `N#Cc1sc2c(c1OC(=O)c1ccc(Cl)cc1Cl)c(=O)n(-c1ccccc1)c(=S)n2-c1ccccc1` the GI50 was inactive: 44.8 µM.
In the case of `COc1cc2ccc(CC(=O)O)cc2cc1OC`, the GI50 is reported as inactive: > 100 µM.
With `CCOC(=O)C(CCC(N)=O)(CCC(=O)OC)C(=O)OCC` the GI50 was inactive: > 100 µM.
With `C=CC/N=C(\S)Nc1sc2c(c1C(=O)OCC)CC(C)CC2` (stereo not drawn) the GI50 was inactive: 26.7 µM.
`CCOP(=S)(OCC)Oc1ccc2c(c1)OC(=O)C1(Cl)C2(C)C2(Cl)C(=O)Oc3cc(OP(=S)(OCC)OCC)ccc3C12C` (stereo not drawn) was tested, and the GI50 was inactive: 15.8 µM.
For `CC12CCC(C(Nc3ccccn3)C1=O)C2(C)C` (stereo not drawn), the GI50 was inactive: > 100 µM.

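Interpolation was linear, between the two tested concentrations surrounding the appropriate level; five concentrations were tested over 48 hours in 96-well plates. GI50 marks 50% less growth.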 Calls of active or inactive are those of the source. Cut-off read from the data, not from the text of the source: active = GI50 up to about 1.1 µM and inactive = higher.
